Assay results taken from PMC4336329 (PLoS ONE, 2015).
Screen size: about 310,000 compounds; about 2,200 (0.71%) showed an effect of 50% or more. Effects have a minus sign here. This is one part of the list.

molecular target: human ether-à-go-go-related gene (hERG) potassium channel (human, UniProt Q12809); assay: primary screen, population patch clamp on CHO cells stably expressing hERG
Sequence (Q12809 whole entry, looked up): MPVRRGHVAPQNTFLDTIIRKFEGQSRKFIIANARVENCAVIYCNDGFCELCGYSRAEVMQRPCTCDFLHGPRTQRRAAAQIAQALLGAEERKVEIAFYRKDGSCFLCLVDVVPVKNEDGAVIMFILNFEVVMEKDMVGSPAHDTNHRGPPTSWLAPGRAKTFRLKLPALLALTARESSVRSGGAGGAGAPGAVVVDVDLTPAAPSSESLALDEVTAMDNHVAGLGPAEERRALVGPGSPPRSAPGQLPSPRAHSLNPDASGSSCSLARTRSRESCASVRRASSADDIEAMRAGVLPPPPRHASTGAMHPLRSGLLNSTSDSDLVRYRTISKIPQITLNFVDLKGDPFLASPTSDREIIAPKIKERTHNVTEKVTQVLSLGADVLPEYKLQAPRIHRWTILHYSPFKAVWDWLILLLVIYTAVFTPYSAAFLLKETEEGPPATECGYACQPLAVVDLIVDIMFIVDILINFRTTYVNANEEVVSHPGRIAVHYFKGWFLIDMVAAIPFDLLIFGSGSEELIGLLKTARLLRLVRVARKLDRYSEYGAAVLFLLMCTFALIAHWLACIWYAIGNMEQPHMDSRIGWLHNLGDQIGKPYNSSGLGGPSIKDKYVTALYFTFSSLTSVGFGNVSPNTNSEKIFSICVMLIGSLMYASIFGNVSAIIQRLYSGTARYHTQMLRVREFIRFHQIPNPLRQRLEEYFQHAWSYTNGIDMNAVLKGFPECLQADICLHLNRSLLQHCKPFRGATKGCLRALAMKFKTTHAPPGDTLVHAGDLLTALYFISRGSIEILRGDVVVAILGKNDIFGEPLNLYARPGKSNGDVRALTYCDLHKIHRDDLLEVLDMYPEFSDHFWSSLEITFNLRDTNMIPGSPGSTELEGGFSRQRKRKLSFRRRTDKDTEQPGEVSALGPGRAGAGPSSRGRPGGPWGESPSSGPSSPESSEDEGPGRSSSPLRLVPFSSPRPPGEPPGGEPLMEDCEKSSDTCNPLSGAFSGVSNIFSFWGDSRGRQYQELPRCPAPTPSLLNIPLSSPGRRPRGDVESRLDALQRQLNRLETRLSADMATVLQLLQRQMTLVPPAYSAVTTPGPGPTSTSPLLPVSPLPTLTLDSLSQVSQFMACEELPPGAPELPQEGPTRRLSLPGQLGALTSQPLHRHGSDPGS

Compound | hERG current change (%, negative = inhibition) at 1uM [%]
O=C(Nc1ccccc1N1CCCCC1)c1ccco1 | 21.2
Cc1cccc2cc(CN(Cc3cccs3)C(=S)NCC3CCCO3)c(=O)[nH]c12 (stereo not shown) | 14.7
COc1cc2c(cc1/C=C1/NC(=O)N(CC(=O)Nc3ccccc3)C1=O)OCO2 | 0.683
CCc1ccc(NC(=O)Cn2cccc2)cc1 | 3.61
COc1cc2c(cc1OC)C(C(=O)N1CCN(c3ccccc3)CC1)C(c1cccs1)N(C)C2=O (stereo not shown) | -23.2
NNC(=O)CSc1nc(-c2ccccc2)cn1-c1ccccc1 | 3.42
CC1CCC(C(C)C)C(OC(=O)CSc2nnc(N)s2)C1 (stereo not shown) | 5.19
CCc1ccccc1NC(=O)CN1CCN(C(=O)C2CCN(C(=O)/C=C/c3ccccc3)CC2)CC1 | -74.5
COc1ccc(C)cc1S(=O)(=O)N(C)CC(=O)NCc1ccco1 | 10.9
Cc1cc(C)cc(NC(=S)N2CCN(c3ncc(C(F)(F)F)cc3Cl)CC2)c1 | 4.11
CCCOc1ccc(N2C(=O)CC(S/C(N)=N/N=C(\C)c3cccs3)C2=O)cc1 (stereo not shown) | 1.43
Cc1ccc(S(=O)(=O)c2c(C)cc(C)nc2N2CCCC2)cc1 | 0.422
Cc1ccc(NC(=O)c2cc(S(=O)(=O)N3CCCCC3)ccc2N2CCOCC2)cc1F | 12.7
CCN1CCCC1CNCc1cc(OC)c(OC)c(OC)c1.Cl (stereo not shown) | 7.34
CC(=O)Oc1ccc(/C(C)=N\N2CCN(Cc3ccc(Cl)cc3)CC2)cc1 | -16.4
CC1(C)Cc2c(c(-c3ccco3)nc3sc4c(NCCO)ncnc4c23)CO1 | 9.73
O=C(COc1coc(CN2CCc3ccccc3C2)cc1=O)N1CCOCC1 | 14.6
CN(C)CCSc1nc(-c2ccccc2)nc2c1CCCC2 | 8.01
Cc1c(Cl)c([N+](=O)[O-])nn1CCCC(=O)Nc1ccc(Cl)cc1Cl | 0.573
N#Cc1c(NC(=O)CSc2nc(-c3ccco3)cc(C(F)(F)F)n2)sc2c1CCCC2 | 13.9
O=C1CCCN1CCCNS(=O)(=O)c1ccc(Cl)c(C(=O)N2CCOCC2)c1 | 12.8
COc1ccccc1C(=O)c1cc2ccc(O)cc2oc1=O | 11.7

Compound | hERG current change (%, negative = inhibition) at 1uM [%]
C[C@@H]1NC(=O)N[C@@H]1CCCCCC(=O)O | 11
C/C(CC(=O)Nc1ccccn1)=N\NC(=O)c1ccncc1 | 13.8
CCn1c(=O)cc(SCC(=O)N2CCC3(CC2)OCCO3)c2ccccc21 | 15.3
COc1ccc(NC(=O)CSc2ccc3nnc(-c4cccnc4)n3n2)cc1 | -40
Cc1cc2c(cc1S(=O)(=O)N(C)Cc1ccccc1)OCC(=O)N2 | 17.8
COc1cc(NC(=O)COc2cc(C)cc3oc(=O)c(C)c(C)c23)cc(OC)c1OC | 22.7
Cc1c(-c2ccccc2)nnn1-c1ccc(F)cc1F | 3.36
CCCC(=O)c1ccc(N2CCN(C(=O)c3cccs3)CC2)c(F)c1 | -18.1
CCOCCn1c(CN2CCCC(C)C2)nc2c1c(=O)n(C)c(=O)n2C (stereo not shown) | 17.4
CCOC(=O)[C@H]1[C@H]2COc3cc(OC)ccc3[C@@H]2N2C(=O)N(c3ccc(Cl)cc3)C(=O)[C@@]12C | 14.8
COc1ccc(NC2CCCN(C(=O)CCN3Cc4ccccc4C3=O)C2)cc1 (stereo not shown) | -3.04
O=C1C(=O)N(CCCn2ccnc2)C(c2ccc([N+](=O)[O-])cc2)/C1=C(\O)c1ccc2c(c1)OCCO2 (stereo not shown) | 11.8
COc1ccc(CCC(=O)NCCc2nc3ccccc3[nH]2)cc1 | -1.74
O=C(CN1CCN(Cc2ccccc2)CC1)N/N=C/c1ccc(Br)s1 | -0.858
Cc1ccc(C(=O)OC(C)CN2CCN(C)CC2)cc1.Cl (stereo not shown) | 10.8
CCCOc1ccc(C(=O)Nc2ccc(S(=O)(=O)N3CCN(C)CC3)cc2)cc1 | 13.3
Cc1nn(-c2ccccc2)c(C)c1C(=O)OCC(=O)N(C)C1CCS(=O)(=O)C1 (stereo not shown) | 3.28
COc1cccc(OC)c1C(=O)Nc1ccc([N+](=O)[O-])cn1 | 2.68
CC(C)CCNC(=O)CN(C(=O)CCC(=O)Nc1ccccn1)c1ccc2c(c1)OCO2 | -10.7
COc1cc(C(=O)Nc2nnc(-c3sccc3C)s2)cc(OC)c1OC | -3.71
Cl.NC(N)=NNC(=O)c1ccccc1Cl | 14
COc1cc(C(=O)O)c([N+](=O)[O-])c(OC)c1OC | 13

Compound | hERG current change (%, negative = inhibition) at 1uM [%]
COc1ccc(/C(C)=N/NC(=O)c2ccc(NS(=O)(=O)c3cccs3)cc2)cc1 | 5.94
COCCn1c(C)cc(C2=NNC(=NC3CC3)SC2)c1C.Cl | 7.94
O=C(CN1CCCCCC1=O)OCc1ncc(-c2ccccc2)o1 | 10.1
CCN(CC)S(=O)(=O)c1cc(NC(=O)CSc2n[nH]c(N)n2)ccc1C | 5.37
CSc1nnc(-c2sccc2OCc2ccccc2)n1C | -5.47
c1ccc(Oc2ccc(-c3ccnc4nc(N5CCOCC5)nn34)cc2)cc1 | 14.7
C=C(C)c1cccc(C(C)(C)NC(=O)Nc2ccc(C(C)=O)cc2)c1 | 8.88
CN(C)S(=O)(=O)c1ccc(NC(=S)NC(=O)C2CCC2)cc1 | 9.81
CC(C)(C)C1CCC(C(=O)NNC(=O)c2ccncc2)CC1 (stereo not shown) | 6.06
CN(CC(=O)Nc1ccc(F)c(F)c1F)C(=O)c1ccc(-n2cncn2)cc1 | -21.8
S=c1[nH]nc(C2CCCCC2)n1/N=C/c1ccccn1 | 20.4
O=C(COc1ccccc1)OCC(=O)N1CCCc2ccccc21 | 13.6
COc1ccc(-n2c(=O)cc(N3CCCCCC3)[nH]c2=O)cc1 | 5.21
CCCc1ccc(S(=O)(=O)N/N=C(/C)c2ccc3c(c2)OCO3)cc1 | 18.1
COc1cc(/C=N/n2cnn(Cc3ccccc3Cl)c2=S)cc(OC)c1OC | 9.18
O=C(Nc1cc(S(=O)(=O)N2CCOCC2)ccc1OCC(F)(F)F)C1=COCCO1 | -10.3
COc1ccc(NC2CCCN(C(=O)CCc3ccncc3)C2)cc1OC (stereo not shown) | 16.1
CCOC(=O)C1=NNC2(c3ccccc3)C(=O)N(c3cccc(Br)c3)C(=O)C12 (stereo not shown) | 5.22
CCCCCCSc1ccc([C@@H]2[C@@H]3C(=O)N(CC)C(=O)[C@@H]3[C@]3(C(=O)OC)CCCCN23)cc1OC.O=C(O)C(F)(F)F | 22.3
Cc1ccc(-n2c(C)nnc2SCC(=O)N2CCc3ccccc3C2)cc1C | 3.66
COCCNc1c2c(nc3c(-c4ccccc4)c(C)nn13)CCC2 | 8.57
O=C(Nc1ccccc1C(=O)Nc1ccccn1)c1cc(F)c(F)cc1Cl | 6.82

Compound | hERG current change (%, negative = inhibition) at 1uM [%]
O=c1c2ccccc2n2nnnc2n1-c1ccccc1 | 6.58
CN(C)c1ccc(C(=O)OCC(=O)N2CCCC2)cc1 | 18.6
NS(=O)(=O)c1cccc(NC(=O)c2ccc3nc[nH]c3c2)c1 | 12.9
CN(CC(=O)Nc1ccc(C(N)=O)cc1)CC(=O)Nc1ccccc1Br | 9.3
Cc1cccc(Oc2ncnc(N)c2[N+](=O)[O-])c1C | 13.3
CC(C)(C)[C@]1(O)CCN2C[C@H]3c4ccccc4CCc4cccc(c43)[C@@H]2C1.Cl | -46.7
O=C(NCc1ccco1)c1ccc([N+](=O)[O-])cc1Cl | 1.33
CN(C)c1ccc(CNC2C3CC4CC(C3)CC2C4)cc1.Cl (stereo not shown) | -0.676
COc1ccccc1N1CCN(S(=O)(=O)CCNC(=O)c2ccc(OC(C)C)cc2)CC1 | 18.9
O=C(N1CCCCC1)N1CCN(c2ccc(Cl)cc2)CC1 | 7.09
Cc1ccc(OC(C)C(=O)Nc2ccncc2)cc1 (stereo not shown) | 8.34
Cc1ccc(S(=O)(=O)Nc2ccc(C(=O)NCCCN3CCOCC3)cc2)cc1[N+](=O)[O-] | 11.7
COCCNC(=O)c1sc2ncn(CC(=O)N3CCCCC3)c(=O)c2c1C | 8.52
COCCN(C(=O)CNC(=O)c1ccco1)C(C(=O)NC1CCCC1)c1ccc(OC)cc1 (stereo not shown) | 1.59
O=C(Nc1cc(-c2ccccc2)[nH]n1)c1ccccc1F | 11.2
Nc1cc2c(cc1C(=O)c1cccc(Br)c1)OCCO2 | 5.57
CCOc1ccc(N2C(=O)CSC23CCCCC3)cc1 | 3.25
CCC(C)(C)C1CCc2[nH]nc(C(=O)NCCN3CCOCC3)c2C1 (stereo not shown) | 15.9
CCCCc1nc2ccccc2[nH]1 | 9.11
O=C(NNc1ccccc1[N+](=O)[O-])Nc1ccc(F)cc1F | 15.3
CCCNC(=O)N1CCN(C(c2ccccc2)c2ccccc2)CC1 | 15.3
COC(=O)c1sccc1NC(=O)CN1CCN(c2ccc(F)cc2)CC1 | 8.91
